Laboratory results published in PMC4598080.
These are yes or no findings as the source states them, for the method shown. For some of these results: In cells and extracts the contact can be indirect. Some entries that bind do so weakly or less than the wild type. Where a sequence is shown, tags or fusion partners need not be part of it.

Amino acid sequences for entries named in this document (tags omitted). A change or cut given only in a name is not applied to a line headed by its entry. Chains listed by the source or under a name are the forms on record and can include a tag or linker. Residues count along the entry.
UniProt P10664: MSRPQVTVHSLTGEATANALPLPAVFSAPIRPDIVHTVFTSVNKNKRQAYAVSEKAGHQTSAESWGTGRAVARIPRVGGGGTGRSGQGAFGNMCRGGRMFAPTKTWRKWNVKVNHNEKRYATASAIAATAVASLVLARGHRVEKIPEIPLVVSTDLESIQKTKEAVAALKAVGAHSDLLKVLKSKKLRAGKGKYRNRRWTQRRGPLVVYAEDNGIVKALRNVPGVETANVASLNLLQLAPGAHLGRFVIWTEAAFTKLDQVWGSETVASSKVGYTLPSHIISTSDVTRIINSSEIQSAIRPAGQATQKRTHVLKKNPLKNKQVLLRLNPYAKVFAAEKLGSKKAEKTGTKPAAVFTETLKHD
Rpl4a.N114 fused to the C-terminal Gal4 DNA-binding domain: residues 1-114 of P10664
Rpl4a amino acids 43-114 (long internal loop) fused to the C-terminal Gal4 DNA-binding domain: residues 43-114 of P10664
Rpl4a amino acids 72-114 with a C-terminal (His)6 tag: residues 72-114 of P10664
Rpl4a amino acids 88-264 fused to the C-terminal Gal4 DNA-binding domain: residues 88-264 of P10664
Rpl4a amino acids 96-264 fused to the C-terminal Gal4 DNA-binding domain: residues 96-264 of P10664
Rpl4a block-I mutant fused to the C-terminal Gal4 DNA-binding domain (P10664, form named): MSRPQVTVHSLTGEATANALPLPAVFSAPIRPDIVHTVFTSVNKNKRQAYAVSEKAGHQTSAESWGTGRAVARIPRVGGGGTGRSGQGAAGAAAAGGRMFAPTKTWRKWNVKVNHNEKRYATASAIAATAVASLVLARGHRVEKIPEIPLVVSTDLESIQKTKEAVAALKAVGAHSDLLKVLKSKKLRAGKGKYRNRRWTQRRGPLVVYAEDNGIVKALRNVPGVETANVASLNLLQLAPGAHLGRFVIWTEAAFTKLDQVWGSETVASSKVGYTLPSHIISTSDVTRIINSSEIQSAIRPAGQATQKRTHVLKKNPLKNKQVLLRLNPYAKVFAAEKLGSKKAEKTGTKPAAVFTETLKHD
Rpl4a lacking the long internal loop (deletion of amino acids 46-110) fused to the C-terminal Gal4 DNA-binding domain (P10664, form named): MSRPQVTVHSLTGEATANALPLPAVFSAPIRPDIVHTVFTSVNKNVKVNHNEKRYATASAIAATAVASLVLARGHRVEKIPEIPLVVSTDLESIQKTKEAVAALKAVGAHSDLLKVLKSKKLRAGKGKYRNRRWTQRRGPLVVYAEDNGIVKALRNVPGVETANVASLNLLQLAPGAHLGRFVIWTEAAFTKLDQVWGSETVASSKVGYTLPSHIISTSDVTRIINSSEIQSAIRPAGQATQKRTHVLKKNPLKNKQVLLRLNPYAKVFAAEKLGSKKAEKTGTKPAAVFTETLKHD
Rpl4a block-II mutant fused to the C-terminal Gal4 DNA-binding domain (P10664, form named): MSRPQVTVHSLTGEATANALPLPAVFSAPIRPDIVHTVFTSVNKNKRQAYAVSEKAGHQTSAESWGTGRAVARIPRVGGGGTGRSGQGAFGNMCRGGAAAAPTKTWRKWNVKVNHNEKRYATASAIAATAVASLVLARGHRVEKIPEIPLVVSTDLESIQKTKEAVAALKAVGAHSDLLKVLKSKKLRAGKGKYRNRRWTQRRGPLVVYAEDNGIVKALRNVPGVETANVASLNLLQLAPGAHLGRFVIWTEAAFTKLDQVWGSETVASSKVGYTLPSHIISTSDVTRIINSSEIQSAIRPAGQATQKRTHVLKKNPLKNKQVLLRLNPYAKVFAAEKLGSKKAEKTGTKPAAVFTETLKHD
Rpl4a block-IV mutant fused to the C-terminal Gal4 DNA-binding domain (P10664, form named): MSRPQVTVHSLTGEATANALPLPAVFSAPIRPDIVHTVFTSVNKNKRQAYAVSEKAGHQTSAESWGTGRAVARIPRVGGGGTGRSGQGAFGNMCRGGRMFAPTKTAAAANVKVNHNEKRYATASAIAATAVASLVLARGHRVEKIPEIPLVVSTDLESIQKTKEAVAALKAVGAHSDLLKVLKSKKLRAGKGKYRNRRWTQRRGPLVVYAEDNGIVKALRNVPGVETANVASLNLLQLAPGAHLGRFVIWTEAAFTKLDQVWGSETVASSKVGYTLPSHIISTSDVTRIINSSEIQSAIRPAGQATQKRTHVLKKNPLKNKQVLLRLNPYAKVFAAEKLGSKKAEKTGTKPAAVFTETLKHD
Rpl4a block-III mutant fused to the C-terminal Gal4 DNA-binding domain (P10664, form named): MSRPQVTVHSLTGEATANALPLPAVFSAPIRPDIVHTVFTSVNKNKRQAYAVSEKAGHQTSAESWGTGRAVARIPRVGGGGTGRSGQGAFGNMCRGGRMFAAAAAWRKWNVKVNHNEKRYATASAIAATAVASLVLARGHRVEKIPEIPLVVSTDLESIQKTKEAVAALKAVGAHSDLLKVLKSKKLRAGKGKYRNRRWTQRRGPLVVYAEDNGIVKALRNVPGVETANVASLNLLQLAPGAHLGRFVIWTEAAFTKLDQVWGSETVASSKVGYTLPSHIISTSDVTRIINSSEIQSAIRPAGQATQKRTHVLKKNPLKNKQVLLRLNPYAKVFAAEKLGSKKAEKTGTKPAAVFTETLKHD

T1: Rpl4a amino acids 96-114 fused to the C-terminal Gal4 DNA-binding domain (S. cerevisiae) (UniProt P10664)
T1 sequence: GGRMFAPTKTWRKWNVKVN

B1: full-length Acl4 fused to the C-terminal Gal4 activation domain (protein, UniProt Q03771 1-387)
chain: MSELEATIRQAKEALAENNAKKALKILKPFKSSLKKENANNVILNEVFADAYLDNGQVEKAYPILARACELDPEGQVGGPDKFFTMGQIMGGQDGVSIITRGIMNISNTGGEMLTNVQVEKIVGGLLSVIEIWMTDLCMEPNAEEQCEELIQKAMELTEGKSPETWSTLGSIKISQQKFGEAYEAFSQAWNFFELKKQEIGSGINENGDTTQKAGLQSEYVDLLQPLLSLTKMCLEVGAYEVALKVIAAVRDIDEDNIEGYYLEGFTYYLMSKLEIFKLNNPEVSLRPENIYEFNQLIQEVPLDLSHEPISQLIYDSRLALSFALQAGVNADSKDEIVQELLGGANALLQEIGGPLDPSELTQIKKGDLVNENEDLEELDIEEEYSD
B2: full-length Acl4-Flag (protein, UniProt Q03771 1-387)
chain: B1 chain

What was measured:
[1] = target: Rpl4a block-I mutant fused to the C-terminal Gal4 DNA-binding domain (S. cerevisiae) (UniProt P10664); assay: two-hybrid; Rpl4a variants fused to G4BD (bait) and Acl4 fused to G4AD (prey) in reporter strain PJ69-4A; growth on SC-His-Leu-Trp (HIS3) and SC-Ade-Leu-Trp (ADE2) plates, 3 d at 30°C
[2] = target: Rpl4a lacking the long internal loop (deletion of amino acids 46-110) fused to the C-terminal Gal4 DNA-binding domain (S. cerevisiae) (UniProt P10664); assay: as above
[3] = target: T1, Rpl4a amino acids 96-114 fused to the C-terminal Gal4 DNA-binding domain (S. cerevisiae); assay: as above
[4] = target: Rpl4a amino acids 88-264 fused to the C-terminal Gal4 DNA-binding domain (S. cerevisiae) (UniProt P10664); assay: as above
[5] = target: Rpl4a amino acids 43-114 (long internal loop) fused to the C-terminal Gal4 DNA-binding domain (S. cerevisiae) (UniProt P10664); assay: as above
[6] = target: Rpl4a block-II mutant fused to the C-terminal Gal4 DNA-binding domain (S. cerevisiae) (UniProt P10664); assay: as above
[7] = target: Rpl4a amino acids 96-264 fused to the C-terminal Gal4 DNA-binding domain (S. cerevisiae) (UniProt P10664); assay: as above
[8] = target: Rpl4a.N114 fused to the C-terminal Gal4 DNA-binding domain (S. cerevisiae) (UniProt P10664); assay: as above
[9] = target: full-length Rpl4a fused to the C-terminal Gal4 DNA-binding domain (S. cerevisiae) (UniProt P10664); assay: as above
[10] = target: Rpl4a block-IV mutant fused to the C-terminal Gal4 DNA-binding domain (S. cerevisiae) (UniProt P10664); assay: as above
[11] = target: Rpl4a block-III mutant fused to the C-terminal Gal4 DNA-binding domain (S. cerevisiae) (UniProt P10664); assay: as above
[12] = target: full-length Rpl4a with a C-terminal (His)6 tag (S. cerevisiae) (UniProt P10664); assay: pull-down; Rpl4a-(His)6 variants co-expressed with Acl4-Flag in E. coli Rosetta(DE3); Ni-NTA agarose purification of the bait from soluble extract; 50 mM Tris-HCl pH 7.5, 200 mM NaCl, 1.5 mM MgCl2, 5% glycerol, 0.1% NP-40, 4°C; imidazole eluate, Coomassie and anti-Flag/anti-His blots
[13] = target: Rpl4a amino acids 72-114 with a C-terminal (His)6 tag (S. cerevisiae) (UniProt P10664); assay: as above

Row | Binder | binding [1] | binding [2] | binding [3] | binding [4] | binding [5] | binding [6] | binding [7] | binding [8] | binding [9] | binding [10] | binding [11] | binding [12] | binding [13]
1 | B1 | no binding | no binding | no binding | binds | binds | no binding | no binding | binds | binds | no binding | no binding | – | –
2 | B2 | – | – | – | – | – | – | – | – | – | – | – | binds | binds
